# Experimental data as given in ChEMBL document CHEMBL4888484, “Replenishing the malaria drug discovery pipeline: Screening and hit evaluation of the MMV Hit Generation Library 1 (HGL1) against asexual blood stage Plasmodium falciparum ,using a nano luciferase reporter read-out” (2022).
# Screen size: about 150,000 compounds; about 540 (0.36%) showed an effect of 50% or more. This is one part of the list.
# System: Plasmodium falciparum
# Assay: Primary screen in NF54 nanoGlo assay, in single point, at 2uM, 72h; a lower Z score goes with more inhibition
# Assay type: functional, Erythrocyte
# Conditions: timepoint 72 hour
SMILES,% Inhibition,Z score
COC1CCC(CCNC(=O)Cc2cncnc2)CC1 (centres undefined),-1%,0.14
CCn1nnc2ccc(-c3noc([C@H](C)NC(=O)c4ccccc4)n3)cc21,-6%,0.96
O=C(OCC(F)(F)F)N1CCC[C@@H]1CCc1ccccn1,7%,-0.86
Fc1ccc(-n2cc(-c3noc(-c4ccc5cc[nH]c5c4)n3)nn2)cc1,-16%,3.06
CN(CC1CCCOC1)c1cc(N(C)CC2CCCOC2)ncn1 (centres undefined),-6%,0.81
Cc1cc(C(=O)N2CC(F)(F)C[C@H]2c2nncn2CC2CC2)nn1C,-2%,0.35
CCN(CN1C(=O)C(=O)c2cc3c(cc21)OCCO3)C(C)C,-1%,0.16
O=C(c1c(O)ccc2ccccc12)N1CC[C@@]2(CCCN(CC3CC3)C2=O)C1,-18%,1.69
Cc1nn(C)c2nc(-c3ccccn3)nc(N(C)CCN3CCCC[C@@H]3C)c12,5%,-0.7
C[C@H](NC(=O)CCNC(N)=O)c1ccc(Cl)s1,-3%,0.54
O=C([C@@H](c1ccncc1)C1CCCC1)N1CC(N2CCCC2=O)C1,-10%,1.1
CN(Cc1ccccc1)Cc1cn([C@H]2CO[C@H]3[C@@H]2OC[C@@H]3NS(=O)(=O)c2cccs2)nn1,9%,-1.01
CC(C)c1nc(NC2CCCCCC2C(N)=O)nc(N(C)C)n1 (centres undefined),-5%,0.66
O=C(C1c2ccccc2Oc2ccccc21)N1CCC(Oc2cccnn2)CC1,-17%,3.28
Cc1ccc(C(=O)O)c(N2C[C@H]3CC[C@@H](C2)N(Cc2ccccn2)C3=O)n1,-15%,1.78
O=S(=O)(N[C@H]1COc2ccccc21)c1ccc2c(c1)OCCO2,-2%,0.38
COC[C@H](C)NC(=O)C1=NN(c2ccccc2)C(=O)CN1,12%,-1.68
COc1ccccc1N1C(O)=Nc2ccccc2S1(=O)=O,29%,-3.97
CNCC(=O)Nc1nn(Cc2ccccc2)c2cccc(N3CCOCC3)c12,-3%,0.54
O=C(N[C@H]1CCCC(F)(F)C1)C1CCN(c2ccc3nncn3n2)CC1,6%,-1.25
CN(C(=O)C1=Cc2cc(Br)ccc2OC=C1)c1ccccc1,-3%,0.47

SMILES,% Inhibition,Z score
Brc1cnn(C(c2ccccc2)(c2ccccc2)c2ccccc2)c1,-6%,0.89
COc1ccc(CCNC(=O)Cn2c(C)nc3onc(C)c3c2=O)cc1OC,-5%,0.76
CC(C)(C)n1cc(C(=O)N2CCC[C@@H]2CC(=O)c2ccccc2)cn1,-9%,0.87
CC(C)N(Cc1cnn(C)c1)C(=O)CNc1ccccc1Cl,-8%,1.24
CN(CCCOc1ccccc1)C[C@@H]1CCCN2CCCC[C@H]12,-6%,1.21
C#CCOc1c(OC)cccc1[C@H]1CC(=O)NCc2nc(N(C)C)sc21,-4%,0.52
Cc1cccc(-n2ncnc2C[C@H]2CCCOC2)c1,-6%,0.63
CCc1nnc(CN(CC)C(=O)NCc2ccoc2)o1,-4%,0.51
CC(CC(=O)NC1CCC(=O)N(C)C1)NC(=O)C1CCCC1 (centres undefined),-17%,2.02
COc1cc(Cl)c(C)cc1NC(=O)CN(CC(=O)O)C(C)C,-11%,1.25
O=C(C1COc2ccccc2O1)N1C2CCC1CC(n1cccn1)C2 (centres undefined),-17%,2.21
Cc1cccc(CN2C[C@@H](C(=O)O)C[C@H](C(=O)Nc3ccc(C)nc3)C2)c1,3%,-0.47
CCN1CCN(C(=O)CCN(Cc2ccccc2)c2nc(-c3ccccc3)nc3ccccc23)CC1,-10%,1.8
O=C(Cn1c(Cc2ccc(Cl)cc2)nc2ccccc21)Nc1ccccc1,38%,-1.66
Fc1ccc(CN(Cc2ncc(C3CC3)o2)C2CCOCC2)cc1,-8%,0.99
CN(C[C@H]1COc2ccccc2O1)c1cncc(C(N)=O)n1,-12%,2
C[C@@H](CCc1ccccc1)NC(=O)NCC(C)(C)C(N)=O,-3%,0.55
Cc1cc(N2CCC[C@H](NC(=O)Cc3cccc(F)c3)C2=O)n(C)n1,0%,0.01
C[C@@H](C1CCN(C(=O)Cc2ccc(CO)cc2)CC1)N1CCN(C)CC1,-7%,1.42
CCCC1(NC(=O)[C@H]2CCCN(C3CCN(Cc4ccncc4)CC3)C2)CC1,1%,-0.17
CCc1nc(NCc2cccnc2Oc2ccc(F)cc2F)ncc1C,-12%,1.51
